Data from the supplement of paper PMC4604168 (melanoma cell lines).
Some of the results follow. Repeats are few or missing, and single values can be far off.

Assays:
Test in all cases: cell count relative to DMSO control; melanoma cells; higher = more viable cells
Conditions in all cases: library dose: standard library concentration; 72 h
[1] = system: SkMel28
[2] = system: SkMel2
[3] = system: SkMel30
[4] = system: SkMel5
[5] = system: UACC257
[6] = system: UACC62
[7] = system: WM115
[8] = system: WM1716
[9] = system: WM1745
[10] = system: WM3526
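Note: cells treated in 1,536-well plates, then fixed and DAPI-stained, with nuclei counted from automated high-throughput microscope images.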

| Structure (SMILES) | cell count [1] [%] | cell count [2] [%] | cell count [3] [%] | cell count [4] [%] | cell count [5] [%] | cell count [6] [%] | cell count [7] [%] | cell count [8] [%] | cell count [9] [%] | cell count [10] [%] |
| --- | --- | --- | --- | --- | --- | --- | --- | --- | --- | --- |
| N.N.[Cl][Pt][Cl] [cisplatin] + C[As](C)SC[C@H](NC(=O)CC[C@H](N)C(=O)O)C(=O)NCC(=O)O [Darinaparsin] (first compound 8 µM, partner dose 2 µM) | 70.2 | 79 | 92.2 | 109 | 91.5 | 85.6 | 101 | 107 | 95.2 | 84.1 |
| C[C@]12O[C@H](C[C@]1(O)CO)n1c3ccccc3c3c4c(c5c6ccccc6n2c5c31)CNC4=O [Lestaurtinib] + Cc1cc(N2CCOCC2)cc2[nH]c(-c3c(NC[C@@H](O)c4cccc(Cl)c4)cc[nH]c3=O)nc12 [BMS536924] (first compound 0.02 µM, partner dose 1 µM) | 63 | 57.1 | 63.7 | 45.6 | 88.7 | 87.6 | 82.6 | 90.2 | 60.9 | 42.8 |
| C[As](C)SC[C@H](NC(=O)CC[C@H](N)C(=O)O)C(=O)NCC(=O)O [Darinaparsin] + Cn1c(Nc2ccc(C(F)(F)F)cc2)nc2cc(Oc3ccnc(-c4ncc(C(F)(F)F)[nH]4)c3)ccc21 [CHIR265] (first compound 2 µM, partner dose 0.4 µM) | 44.6 | 46.3 | 66.4 | 34.6 | 76 | 58.6 | 30.1 | 57.1 | 60.7 | 30.6 |
| N.N.[Cl][Pt][Cl] [cisplatin] + CO[C@@H]1[C@H](N(C)C(=O)c2ccccc2)C[C@H]2O[C@]1(C)n1c3ccccc3c3c4c(c5c6ccccc6n2c5c31)C(=O)NC4 [Midostaurin] (first compound 8 µM, partner dose 0.4 µM) | 27.6 | 51.2 | 82.6 | 61 | 53.5 | 66.6 | 55.6 | 40.4 | 24.1 | 64.1 |
| C[As](C)SC[C@H](NC(=O)CC[C@H](N)C(=O)O)C(=O)NCC(=O)O [Darinaparsin] + NCC(=O)Nc1ccc(-n2nc(C(F)(F)F)cc2-c2ccc3c(ccc4ccccc43)c2)cc1 [OSU03012] (first compound 2 µM, partner dose 5 µM) | 21 | 29.5 | 19.7 | 31.6 | 74.2 | 36.6 | 72 | 64 | 56.8 | 38.2 |
| C[As](C)SC[C@H](NC(=O)CC[C@H](N)C(=O)O)C(=O)NCC(=O)O [Darinaparsin] + Cc1cc(SCc2sc(-c3ccc(C(F)(F)F)c(F)c3)nc2C)ccc1OCC(=O)O [GW0742] (first compound 2 µM, partner dose 10 µM) | 117 | 100 | 103 | 80.5 | 103 | 99.6 | 94.3 | 69.6 | 132 | 83.1 |
| C[As](C)SC[C@H](NC(=O)CC[C@H](N)C(=O)O)C(=O)NCC(=O)O [Darinaparsin] + CO[C@@H]1[C@H](N(C)C(=O)c2ccccc2)C[C@H]2O[C@]1(C)n1c3ccccc3c3c4c(c5c6ccccc6n2c5c31)C(=O)NC4 [Midostaurin] (first compound 2 µM, partner dose 0.4 µM) | 49.2 | 52.8 | 49 | 43.9 | 56.8 | 56 | 34.5 | 47.6 | 56.4 | 54.9 |
| N.N.[Cl][Pt][Cl] [cisplatin] + CN1CCN(c2ccc3nc(-c4c(N)c5c(F)cccc5[nH]c4=O)[nH]c3c2)CC1 [Dovitinib] (first compound 8 µM, partner dose 0.5 µM) | 35.1 | 71.2 | 88.6 | 69.5 | 73.2 | 69.7 | 56.5 | 68.5 | 55.2 | 73 |
| C[C@]12O[C@H](C[C@]1(O)CO)n1c3ccccc3c3c4c(c5c6ccccc6n2c5c31)CNC4=O [Lestaurtinib] + CO[C@H]1C[C@@H]2CC[C@@H](C)[C@@](O)(O2)C(=O)C(=O)N2CCCC[C@H]2C(=O)O[C@H]([C@H](C)C[C@@H]2CC[C@@H](OCCO)[C@H](OC)C2)CC(=O)[C@H](C)/C=C(\C)[C@@H](O)[C@@H](OC)C(=O)[C@H](C)C[C@H](C)/C=C/C=C/C=C/1C [everolimus] (first compound 0.02 µM, partner dose 0.1 µM) | 43.1 | 70.4 | 55.2 | 44.9 | 90 | 64.4 | 56.8 | 77.8 | 90.2 | 60 |
| C[C@]12O[C@H](C[C@]1(O)CO)n1c3ccccc3c3c4c(c5c6ccccc6n2c5c31)CNC4=O [Lestaurtinib] + CC1(C)NC(=O)N(c2ccc([N+](=O)[O-])c(C(F)(F)F)c2)C1=O [nilutamide] (first compound 0.02 µM, partner dose 5 µM) | 65.8 | 108 | 109 | 59.9 | 109 | 106 | 93.7 | 97.5 | 91.6 | 65.3 |
| Cn1cc(C2=C(c3cn(C4CCN(Cc5ccccn5)CC4)c4ccccc34)C(=O)NC2=O)c2ccccc21 [Enzastaurin] + O=C(O)c1ccc2c(c1)nc(Nc1cccc(Cl)c1)c1ccncc12 [CX4945] (first compound 4 µM, partner dose 2 µM) | 63.3 | 56.6 | 88.4 | 82.4 | 96 | 63.3 | 108 | 73.6 | 36.2 | 70.3 |
| N.N.[Cl][Pt][Cl] [cisplatin] + COc1ccc(Cl)c(Nc2nc3ccccc3nc2NS(=O)(=O)c2cccc(NC(=O)C(C)(C)N)c2)c1 [XL147] (first compound 8 µM, partner dose 4 µM) | 100 | 87.4 | 112 | 111 | 49.8 | 84.7 | 115 | 107 | 100 | 81 |
| C[C@]12O[C@H](C[C@]1(O)CO)n1c3ccccc3c3c4c(c5c6ccccc6n2c5c31)CNC4=O [Lestaurtinib] + CN1CCN(c2ccc3nc(-c4c(N)c5c(F)cccc5[nH]c4=O)[nH]c3c2)CC1 [Dovitinib] (first compound 0.02 µM, partner dose 0.5 µM) | 45 | 57.3 | 55.2 | 42.9 | 78.1 | 53.6 | 38.6 | 78.4 | 64.4 | 49.1 |
| Cn1cc(C2=C(c3cn(C4CCN(Cc5ccccn5)CC4)c4ccccc34)C(=O)NC2=O)c2ccccc21 [Enzastaurin] + NCC(=O)Nc1ccc(-n2nc(C(F)(F)F)cc2-c2ccc3c(ccc4ccccc43)c2)cc1 [OSU03012] (first compound 4 µM, partner dose 5 µM) | 24 | 33.8 | 34.4 | 48 | 89.2 | 42.4 | 65.5 | 63.7 | 32.8 | 40.8 |
| C[C@]12O[C@H](C[C@]1(O)CO)n1c3ccccc3c3c4c(c5c6ccccc6n2c5c31)CNC4=O [Lestaurtinib] + O=C(Nc1cccc(Cl)c1)Nc1ncc(CCNc2ncnc3ccsc23)s1 [SNS314] (first compound 0.02 µM, partner dose 0.004 µM) | 35 | 105 | 104 | 52 | 73.2 | 78.8 | 46.6 | 45 | 69.8 | 63.9 |
| N.N.[Cl][Pt][Cl] [cisplatin] + C[C@@H](Oc1cc(-c2cnn(C3CCNCC3)c2)cnc1N)c1c(Cl)ccc(F)c1Cl [Crizotinib] (first compound 8 µM, partner dose 1 µM) | 85.8 | 98.5 | 90.1 | 70.1 | 70.5 | 77.9 | 64.8 | 80.4 | 46.4 | 74.4 |
| N.N.[Cl][Pt][Cl] [cisplatin] + CC1(C)NC(=O)N(c2ccc([N+](=O)[O-])c(C(F)(F)F)c2)C1=O [nilutamide] (first compound 8 µM, partner dose 5 µM) | 78.6 | 101 | 98.3 | 90.2 | 83.1 | 91.8 | 90.1 | 86.2 | 87.5 | 98.9 |
| Cn1cc(C2=C(c3cn(C4CCN(Cc5ccccn5)CC4)c4ccccc34)C(=O)NC2=O)c2ccccc21 [Enzastaurin] + CN(C)S(=O)(=O)c1ccc2c(c1)/C(=C/c1cc3c([nH]1)CCCC3)C(=O)N2 [SU6656] (first compound 4 µM, partner dose 2 µM) | 60.8 | 81.5 | 88.3 | 65.3 | 89.7 | 64.3 | 58.7 | 49 | 53.9 | 87 |
| Cn1cc(C2=C(c3cn(C4CCN(Cc5ccccn5)CC4)c4ccccc34)C(=O)NC2=O)c2ccccc21 [Enzastaurin] + CS(=O)(=O)CCNCc1ccc(-c2ccc3ncnc(Nc4ccc(OCc5cccc(F)c5)c(Cl)c4)c3c2)o1 [lapatinib] (first compound 4 µM, partner dose 4 µM) | 50.3 | 55.6 | 90.3 | 64.7 | 81.3 | 42.7 | 74.8 | 67.9 | 33.7 | 74.8 |
| N.N.[Cl][Pt][Cl] [cisplatin] + CS(=O)(=O)CCNCc1ccc(-c2ccc3ncnc(Nc4ccc(OCc5cccc(F)c5)c(Cl)c4)c3c2)o1 [lapatinib] (first compound 8 µM, partner dose 4 µM) | 151 | 138 | 107 | 71 | 97.3 | 82.8 | 101 | 111 | 88.4 | 96.4 |
| C[C@]12O[C@H](C[C@]1(O)CO)n1c3ccccc3c3c4c(c5c6ccccc6n2c5c31)CNC4=O [Lestaurtinib] + CNC(=O)c1cc(Oc2ccc(NC(=O)Nc3ccc(Cl)c(C(F)(F)F)c3)cc2)ccn1 [sorafenib] (first compound 0.02 µM, partner dose 2 µM) | 118 | 79.5 | 66.8 | 69.6 | 80.5 | 75.9 | 97.8 | 115 | 58.3 | 69.8 |
| N.N.[Cl][Pt][Cl] [cisplatin] + Cc1cc(N2CCOCC2)cc2[nH]c(-c3c(NC[C@@H](O)c4cccc(Cl)c4)cc[nH]c3=O)nc12 [BMS536924] (first compound 8 µM, partner dose 1 µM) | 96.5 | 74.7 | 98.2 | 65.1 | 91.9 | 114 | 94.7 | 87 | 61.4 | 90.4 |
